# Experimental data: PubChem BioAssay AID588579 (National Center for Advancing Translational Sciences (NCATS), 2011)
# Where “and” joins values, the source holds several entries; their conditions need not be identical. Equal values may be shown once. Among all 400,000 compounds or so, about 2,200 (0.55%) were called active. Not shown: some 1% with an inconclusive outcome. Calls follow the shape of the dose curve; as a rule, active = well fitted inhibition curve with a large enough effect; inconclusive = small, poorly fitted or top-dose-only effect, or another doubt; inactive = no such curve, though single readings can be large or run the other way. Only a part is listed here, and it is no random draw. Where a structure was tested more than once in an assay, its records may differ in their call. Positions of bridges follow the written chain, without caps; N, C: chain ends. Residues, ends and D or L forms follow the SMILES beside them.
# Target: DNA polymerase kappa (Homo sapiens) (UniProt Q9UBT6)
# Assay: qHTS for Inhibitors of Polymerase Kappa
# Settings: purified Pol kappa, fluorescent DNA synthesis assay, 10 min; series mostly up to 107 µM; activity, negative = inhibition: at the top concentration
# How it was run: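 Readout: fluorescence, taken kinetically at 0 and 10 min. Conditions: 10 nM Pol kappa, 15 min RT compound preincubation, 50 nM substrate final. Controls: enzyme-free buffer wells.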
# % is scaled to controls: 0 for no effect and ±100 for the full control effect; potency is read from the fitted curve at half-maximal effect.
# Sequence of UniProt Q9UBT6 (Q9UBT6 whole entry, looked up): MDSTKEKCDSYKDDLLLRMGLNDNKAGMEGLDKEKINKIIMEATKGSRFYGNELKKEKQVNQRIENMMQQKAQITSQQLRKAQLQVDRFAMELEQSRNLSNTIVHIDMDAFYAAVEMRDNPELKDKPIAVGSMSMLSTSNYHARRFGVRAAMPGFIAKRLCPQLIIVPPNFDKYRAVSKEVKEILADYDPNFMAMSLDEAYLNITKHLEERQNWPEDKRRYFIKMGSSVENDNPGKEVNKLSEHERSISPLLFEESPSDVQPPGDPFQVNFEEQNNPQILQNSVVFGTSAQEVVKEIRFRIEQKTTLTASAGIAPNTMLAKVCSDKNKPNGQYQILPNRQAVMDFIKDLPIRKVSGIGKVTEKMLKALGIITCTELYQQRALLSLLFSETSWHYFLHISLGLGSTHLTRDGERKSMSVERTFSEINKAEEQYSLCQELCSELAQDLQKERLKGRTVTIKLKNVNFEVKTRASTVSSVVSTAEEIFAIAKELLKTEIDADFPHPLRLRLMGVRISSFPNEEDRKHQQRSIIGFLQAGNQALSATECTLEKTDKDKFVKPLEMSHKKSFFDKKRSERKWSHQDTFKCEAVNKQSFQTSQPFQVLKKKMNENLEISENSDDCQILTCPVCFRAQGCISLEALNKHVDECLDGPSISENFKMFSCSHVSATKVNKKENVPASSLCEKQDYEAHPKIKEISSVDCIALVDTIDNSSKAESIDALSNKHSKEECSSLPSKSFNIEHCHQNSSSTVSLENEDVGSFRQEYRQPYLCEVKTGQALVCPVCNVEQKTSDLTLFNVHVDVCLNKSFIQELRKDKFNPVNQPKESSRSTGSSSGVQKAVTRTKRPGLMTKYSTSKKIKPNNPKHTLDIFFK
SMILES,Potency,"activity, negative = inhibition"
O=C(Nc1ccc2nc(-c3ccco3)c(-c3ccco3)nc2c1)N1CCN(c2ccccn2)CC1,active: 28.2 µM,–
CNC[C@H](O)c1ccc(O)c(O)c1,active: 2 µM and active: 2.67 µM and active: 7.08 µM,–
CN1CCN(CCCN2c3ccccc3Sc3ccc(C(F)(F)F)cc32)CC1,inactive,–
CCCCCCCCCCCCCCC[C@H](O)[C@H](N)CO,–,inactive: -3.46%
CCOc1ccccc1NC(=O)CCn1nc(C)c(S(=O)(=O)N2CCCCC2)c1C,–,inactive: 0%
C[C@@H]1C(c2cccc(Cl)c2)=NN(c2ccccc2)[C@H]1C(=O)N1CCOC1=O,–,inactive: 4.3%
CCCCC(=O)OC1CCC2C3CCc4cc(O)ccc4C3CCC12C (centres undefined),–,inactive: -7.71%
Oc1ccc(/C=C/c2cc(O)cc(O)c2)cc1,inactive,–
O=C(O)c1cccc(N2C(=O)/C(=C/c3ccc(SCc4ccc(Cl)cc4)o3)SC2=S)c1,active: 79.4 µM,–
COc1ccc(-c2nnc(SCc3cccc(Cl)c3)o2)cc1,–,inactive: 24%
COc1ccc2[nH]c(=O)c(CN(Cc3nnnn3Cc3ccco3)C3CCCCC3)cc2c1,active: 35.5 µM,–
COC(=O)[C@@H]1[C@@H]2C[C@H]3c4[nH]c5ccccc5c4CCN3C[C@@H]2CC[C@@H]1O,inactive,–
O=C(O)C(S)[C@@H](S)C(=O)O (some centres undefined),active: 22.4 µM,–
CCCc1c(-c2ccc(O)cc2)nn(-c2ccc(O)cc2)c1-c1ccc(O)cc1,inactive,–
OCCOCCN1CCN(Cc2cccc(Oc3ccccc3)c2)CC1,–,inactive: 13.9% [at 60.1 µM]
O=c1c(-c2ccc(O)cc2)coc2cc(OC3OC(CO)C(O)C(O)C3O)ccc12 (centres undefined),–,inactive: 3.82%
COc1cc(OC)c2c(O)c3c(c(-c4c5c(c(O)c6c(OC)cc(OC)cc46)CO[C@@H](C)[C@H]5O)c2c1)[C@H](O)[C@H](C)OC3,active: 39.8 µM,–
O=C(COC(=O)C1CC(=O)N(Cc2ccco2)C1)c1ccc(OC(=O)c2ccco2)cc1 (centres undefined),active: 31.6 µM,–
O=C(O)c1cc(C(=O)O)cc(N2C(=O)CSC2=S)c1,active: 89.1 µM,–
Cc1cccc(C2=NN(c3ccccc3)[C@@H](C(=O)N3CCOC3=O)[C@@H]2C)c1,–,inactive: -8.86%
CCOC(=O)C1Nc2ccc(C(=O)O)cc2C2C=CCC12 (centres undefined),active: 10 µM,–
O=C(O)CSc1c2ccccc2cc2ccccc12,–,inactive: -10.6%
Cc1nc2ccc(-c3nc4ccc(N)cc4[nH]3)cc2[nH]1,active: 50.1 µM,–
CC1CCN(C(=O)Nc2ccc3nc(-c4ccco4)c(-c4ccco4)nc3c2)CC1,active: 8.91 µM,–
CCOC(=O)c1cc2c(=O)n3ccccc3nc2n(Cc2ccco2)c1=NC(=O)c1ccc(OC)cc1,–,inactive: -0.542%
CCCCC1=C(C(=O)OCC)C(C(=O)OCC)Oc2ccccc21 (centres undefined),–,inactive: 4.62%
CC(C)CN1CCC(=O)N(CCSc2ccccc2)CC1,–,inactive: -13.4%

SMILES,Potency,"activity, negative = inhibition"
C[C@@](N)(Cc1ccc(O)c(O)c1)C(=O)O,–,inactive: -13.8% [at 12 µM]
Cc1ccccc1/C=C\c1nc2ccccc2c(=O)[nH]1,–,inactive: -3.77%
COc1[nH]c(/N=C/c2ccccc2)c(C#N)c1C#N,–,inactive: -12%
CN1CCN(C2Cc3ccccc3Sc3ccc(Cl)cc32)CC1 (centres undefined),inactive,–
O=C(O)c1cccc(Cn2c(Cl)c(/C=N/NC(=O)c3cc4ccccc4cc3O)sc2=O)c1,active: 31.6 µM,–
CCC(c1ccc(O)c(O)c1)C(CC)c1ccc(O)c(O)c1 (centres undefined),active: 50.1 µM,–
COc1ccccc1C1CC(=O)Oc2c(C(C)C)ccc(C)c21 (centres undefined),–,inactive: -13.2%
C[C@@H](C(=O)O)c1cccc(C(=O)c2ccccc2)c1,–,inactive: -7.07% [at 12 µM]
C=CC1=C(C(=O)O)N2C(=O)[C@@H](NC(=O)/C(=N\OCC(=O)O)c3csc(N)n3)[C@@H]2SC1,–,inactive: -11.7% [at 19.4 µM]
CCOC(=O)N(O)c1ccc(C=Cc2ccccc2)cc1,active: 79.4 µM,–
Cc1nnc(SCC2=C(C(=O)O)N3C(=O)C(NC(=O)Cn4nc(C(F)F)c(Cl)c4C)C3SC2)s1 (centres undefined),active: 50.1 µM,–
CSCC[C@H](NC(=O)[C@H](CC(C)C)NC(=O)CNC(=O)[C@H](Cc1ccccc1)NC(=O)[C@H](Cc1ccccc1)NC(=O)[C@H](CCC(N)=O)NC(=O)[C@H](CCC(N)=O)NC(=O)[C@@H]1CCCN1C(=O)[C@H](CCCCN)NC(=O)[C@@H]1CCCN1C(=O)[C@@H](N)CCCN=C(N)N)C(N)=O,–,inactive: 13.6% [at 60.1 µM]
CC(=O)N[C@@H](Cc1c[nH]c2ccccc12)C(=O)OCc1cc(C(F)(F)F)cc(C(F)(F)F)c1,inactive,–
Cc1ccc(CNC(=O)CCc2c(C)nn(-c3ccc(N4CCCC4)nn3)c2C)cc1,–,inactive: 39%
CC(=O)Nc1c(N)[nH]c(=O)n(C)c1=O,–,inactive: 11.5% [at 60.1 µM]
N[C@@H](CO)C(=O)O,–,inactive: -7.49% [at 19.4 µM]
c1coc(-c2nc3cc4ccccc4cc3nc2-c2ccco2)c1,active: 39.8 µM,–
OCCN1CCN(CC/C=C2\c3ccccc3Sc3ccc(C(F)(F)F)cc32)CC1,–,inactive: -8.78% [at 12 µM]
CCC(/C=C1\Sc2ccc(OC)cc2N1CCO)=C\c1sc2ccc(OC)cc2[n+]1CCO,–,inactive: 1.06% [at 60.1 µM]
COC(=O)C1C(O)CCC2CN3CCc4c([nH]c5ccccc45)C3CC21 (centres undefined),–,inactive: -7.28%
CCOC(=O)C1=C(C)c2ccccc2OC1C(=O)OCC (centres undefined),–,inactive: -11.1%
CC(C)[C@H](NC(=O)OCc1ccccc1)C(=O)OCC(=O)NCc1ccco1,–,inactive: -24.8%
C[C@@H]1CCC[C@]2(C)CCCC[C@@]12O,–,inactive: 18.6% [at 60.1 µM]
CC(C)[C@H](NC(=O)[C@@H]1CSSC[C@H](NC(=O)[C@H](CC(=O)O)NC(=O)[C@H](C)NC(=O)[C@@H](NC(=O)CNC(=O)[C@H](C)N)[C@@H](C)O)C(=O)N[C@@H](Cc2ccccc2)C(=O)N[C@@H](Cc2c[nH]c3ccccc23)C(=O)N[C@@H](CCCCN)C(=O)N[C@@H](Cc2ccc(O)cc2)C(=O)N1)C(=O)O (H-AGTADCFWKYCV-OH; disulfide 6-11),–,inactive: 16.4% [at 60.1 µM]
C[C@H]1CCC[C@@]2(C)CCCC[C@]12O,–,inactive: 9.76% [at 60.1 µM]
CCOC(=O)c1ccc(NC(=O)c2cc3c(n(-c4ccc(C)cc4)c2=O)CC(C)(C)CC3=O)cc1,active: 89.1 µM,–
CC1CN(C(=O)c2cc(-c3ccncc3)nc3ccccc23)CC(C)O1 (centres undefined),–,inactive: 28%
